# Data reported in PMC3332055.
# Sequences of proteins named here, by UniProt entry; tags and fusion partners are left off.
# UniProt P25490: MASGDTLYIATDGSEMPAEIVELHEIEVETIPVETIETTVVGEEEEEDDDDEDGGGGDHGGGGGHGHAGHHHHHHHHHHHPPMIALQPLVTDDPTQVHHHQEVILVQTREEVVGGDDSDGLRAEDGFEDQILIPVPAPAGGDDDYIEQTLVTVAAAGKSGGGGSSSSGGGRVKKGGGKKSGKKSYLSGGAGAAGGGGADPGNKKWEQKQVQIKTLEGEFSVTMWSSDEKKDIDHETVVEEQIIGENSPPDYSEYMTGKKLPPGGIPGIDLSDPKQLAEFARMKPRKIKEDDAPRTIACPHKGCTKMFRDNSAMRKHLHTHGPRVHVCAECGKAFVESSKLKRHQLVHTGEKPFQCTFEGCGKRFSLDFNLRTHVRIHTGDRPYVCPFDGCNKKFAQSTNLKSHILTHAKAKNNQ
# UniProt P22415: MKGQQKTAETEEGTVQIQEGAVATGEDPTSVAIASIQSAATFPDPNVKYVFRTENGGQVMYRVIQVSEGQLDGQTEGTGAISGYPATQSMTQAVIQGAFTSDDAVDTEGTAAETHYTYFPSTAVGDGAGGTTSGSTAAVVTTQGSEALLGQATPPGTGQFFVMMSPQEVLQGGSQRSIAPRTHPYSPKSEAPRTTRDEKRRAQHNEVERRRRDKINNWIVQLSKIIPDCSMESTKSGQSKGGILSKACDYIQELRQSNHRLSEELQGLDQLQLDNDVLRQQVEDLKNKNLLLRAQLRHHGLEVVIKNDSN
# UniProt Q15853: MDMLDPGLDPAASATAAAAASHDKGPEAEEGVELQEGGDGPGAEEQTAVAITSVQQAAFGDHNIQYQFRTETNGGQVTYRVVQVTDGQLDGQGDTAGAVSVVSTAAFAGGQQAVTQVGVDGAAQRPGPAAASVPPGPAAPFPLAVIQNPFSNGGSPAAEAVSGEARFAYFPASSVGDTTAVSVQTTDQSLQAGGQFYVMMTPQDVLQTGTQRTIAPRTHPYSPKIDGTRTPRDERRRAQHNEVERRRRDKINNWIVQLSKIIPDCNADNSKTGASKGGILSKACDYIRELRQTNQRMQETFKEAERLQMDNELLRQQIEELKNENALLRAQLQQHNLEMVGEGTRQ
# UniProt P23511: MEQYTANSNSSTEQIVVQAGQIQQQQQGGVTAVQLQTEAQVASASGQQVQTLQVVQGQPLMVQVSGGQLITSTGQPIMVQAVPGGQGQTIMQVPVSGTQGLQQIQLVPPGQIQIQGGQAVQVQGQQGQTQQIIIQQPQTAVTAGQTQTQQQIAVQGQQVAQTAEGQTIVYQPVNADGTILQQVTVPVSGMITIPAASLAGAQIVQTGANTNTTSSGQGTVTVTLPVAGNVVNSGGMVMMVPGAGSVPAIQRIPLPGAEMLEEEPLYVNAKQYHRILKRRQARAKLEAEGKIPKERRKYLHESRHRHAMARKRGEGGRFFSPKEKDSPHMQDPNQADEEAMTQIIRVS
# UniProt Q09472: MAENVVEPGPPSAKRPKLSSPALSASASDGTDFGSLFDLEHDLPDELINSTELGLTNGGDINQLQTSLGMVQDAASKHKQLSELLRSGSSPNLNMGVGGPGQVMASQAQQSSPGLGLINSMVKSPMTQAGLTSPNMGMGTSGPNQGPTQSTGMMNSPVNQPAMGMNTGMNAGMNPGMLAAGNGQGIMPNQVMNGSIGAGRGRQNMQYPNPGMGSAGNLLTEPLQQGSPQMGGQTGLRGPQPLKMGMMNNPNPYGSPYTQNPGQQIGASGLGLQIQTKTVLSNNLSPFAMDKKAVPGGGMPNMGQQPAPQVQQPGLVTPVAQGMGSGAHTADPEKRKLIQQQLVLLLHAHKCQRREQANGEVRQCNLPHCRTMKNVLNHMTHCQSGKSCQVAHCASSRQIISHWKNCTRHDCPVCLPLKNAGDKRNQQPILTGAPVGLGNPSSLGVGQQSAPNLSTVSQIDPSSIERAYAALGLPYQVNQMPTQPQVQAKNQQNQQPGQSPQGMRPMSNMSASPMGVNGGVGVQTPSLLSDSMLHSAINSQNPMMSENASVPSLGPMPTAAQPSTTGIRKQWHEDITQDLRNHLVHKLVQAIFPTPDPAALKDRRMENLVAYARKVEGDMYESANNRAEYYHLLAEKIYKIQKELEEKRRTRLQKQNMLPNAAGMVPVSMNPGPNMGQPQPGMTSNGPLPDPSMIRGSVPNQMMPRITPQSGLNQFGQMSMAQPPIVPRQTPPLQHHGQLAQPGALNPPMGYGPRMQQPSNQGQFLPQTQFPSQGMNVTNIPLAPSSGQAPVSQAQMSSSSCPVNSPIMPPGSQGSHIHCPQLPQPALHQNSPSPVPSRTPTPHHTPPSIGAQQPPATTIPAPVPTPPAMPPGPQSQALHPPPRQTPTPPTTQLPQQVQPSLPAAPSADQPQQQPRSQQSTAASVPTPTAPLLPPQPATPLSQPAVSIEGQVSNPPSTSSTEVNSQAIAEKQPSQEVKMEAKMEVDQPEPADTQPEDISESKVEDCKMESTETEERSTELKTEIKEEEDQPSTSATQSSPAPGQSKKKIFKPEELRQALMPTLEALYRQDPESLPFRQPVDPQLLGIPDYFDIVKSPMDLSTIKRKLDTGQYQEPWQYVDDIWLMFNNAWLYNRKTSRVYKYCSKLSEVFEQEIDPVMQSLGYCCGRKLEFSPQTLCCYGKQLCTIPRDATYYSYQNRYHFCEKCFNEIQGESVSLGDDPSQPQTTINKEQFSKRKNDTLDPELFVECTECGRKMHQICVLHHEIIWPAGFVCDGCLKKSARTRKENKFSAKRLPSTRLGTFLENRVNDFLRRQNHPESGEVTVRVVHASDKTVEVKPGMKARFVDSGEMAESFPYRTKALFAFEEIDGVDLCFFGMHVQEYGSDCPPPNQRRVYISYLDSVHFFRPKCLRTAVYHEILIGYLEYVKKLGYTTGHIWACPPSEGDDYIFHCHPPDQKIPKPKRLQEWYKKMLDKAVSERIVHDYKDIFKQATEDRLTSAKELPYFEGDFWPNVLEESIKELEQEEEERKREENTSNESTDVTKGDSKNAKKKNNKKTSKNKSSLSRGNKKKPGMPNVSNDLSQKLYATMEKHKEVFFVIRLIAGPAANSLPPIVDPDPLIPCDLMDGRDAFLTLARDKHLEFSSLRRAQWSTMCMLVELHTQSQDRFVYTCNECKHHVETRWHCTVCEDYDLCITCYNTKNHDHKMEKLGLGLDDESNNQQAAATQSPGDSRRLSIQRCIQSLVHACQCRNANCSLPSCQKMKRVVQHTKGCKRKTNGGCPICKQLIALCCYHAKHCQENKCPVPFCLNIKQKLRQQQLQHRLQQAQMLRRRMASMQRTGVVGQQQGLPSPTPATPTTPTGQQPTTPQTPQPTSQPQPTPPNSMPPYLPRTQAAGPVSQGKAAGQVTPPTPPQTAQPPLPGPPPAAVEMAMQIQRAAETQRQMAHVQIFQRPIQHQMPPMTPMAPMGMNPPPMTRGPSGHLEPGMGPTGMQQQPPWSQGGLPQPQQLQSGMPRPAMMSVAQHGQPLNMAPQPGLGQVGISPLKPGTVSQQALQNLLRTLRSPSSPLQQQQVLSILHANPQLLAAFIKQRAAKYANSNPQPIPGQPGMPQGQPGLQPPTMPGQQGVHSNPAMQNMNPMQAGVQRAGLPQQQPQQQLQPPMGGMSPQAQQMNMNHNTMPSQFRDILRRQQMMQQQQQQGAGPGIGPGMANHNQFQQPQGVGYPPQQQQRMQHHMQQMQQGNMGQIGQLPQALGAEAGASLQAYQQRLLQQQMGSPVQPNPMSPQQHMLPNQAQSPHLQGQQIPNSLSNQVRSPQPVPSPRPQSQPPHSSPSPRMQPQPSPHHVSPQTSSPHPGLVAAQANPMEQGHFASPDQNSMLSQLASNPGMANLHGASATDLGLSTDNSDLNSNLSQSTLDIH
# These are yes or no findings as the source states them, for the method shown. In cells and extracts the contact can be indirect. Some binding calls cover weakened binding; strength is not graded here.
# Legend:
# Assay in all cases: co-IP; HeLa cell lysate, endogenous proteins; 2 µg of antibody (YY1, USF1, USF2, NF-YA or NF-YB) and protein G plus-agarose beads overnight; washed with lysis buffer containing 0.5 M NaCl; immunoblot with anti-p300 antibody
# [1] = biological target: Yin Yang-1 (YY1) (human (endogenous in HeLa)) (UniProt P25490)
# [2] = biological target: Upstream Stimulating Factor 1 (USF1) (human (endogenous in HeLa)) (UniProt P22415)
# [3] = biological target: Upstream Stimulating Factor 2 (USF2) (human (endogenous in HeLa)) (UniProt Q15853)
# [4] = biological target: T1, Nuclear Factor-Y subunit B (NF-YB) (human (endogenous in HeLa)) (UniProt P25208)
# T1 sequence: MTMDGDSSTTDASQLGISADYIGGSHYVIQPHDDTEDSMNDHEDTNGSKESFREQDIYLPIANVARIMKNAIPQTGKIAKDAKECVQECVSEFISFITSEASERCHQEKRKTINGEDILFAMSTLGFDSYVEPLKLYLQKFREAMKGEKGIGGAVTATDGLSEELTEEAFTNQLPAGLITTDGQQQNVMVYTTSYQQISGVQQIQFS
# [5] = biological target: Nuclear Factor-Y subunit A (NF-YA) (human (endogenous in HeLa)) (UniProt P23511)
substance,measurement,setting,value
p300 co-activator (from UniProt Q09472 1-2414),binding,[1],binds
same,binding,[2],no binding
same,binding,[3],binds
same,binding,[4],binds
same,binding,[5],no binding
